Source: PubChem BioAssay AID463173 (ICCB-Longwood Screening Facility, Harvard Medical School, 2010)
In all, about 52,000 compounds went through this assay and about 4,300 (8.3%) were called active. No stated cut-off is given here; in the data, active means survival mostly below about 52% (no sharp cut-off); inactive means mostly above about 56%. The list shows a part of the results.

System: DeltatarO mutant
Test: growth inhibition of S. aureus wild type versus tarO mutant, primary screen, teichoic acid synthesis inhibitors, RN4220, OD600 (AID 463173)
Conditions: OD600, 18 h, stronger effect = lower value, screened at 18.75 µg/mL (by protocol)

Row | Compound | survival
1 | Cc1ccc(-c2nnc(Nc3ccccc3)c3ccccc23)cc1S(=O)(=O)NCc1nc2ccccc2[nH]1 | inactive: 73%
2 | Cc1ccc(C)c(N2CCN(CCCNC(=O)c3ccc4nc(N5CCCCC5)sc4c3)CC2)c1 | inactive: 71%
3 | COc1ccc(C(=O)N(c2ccc(OC)cc2)S(=O)(=O)c2ccc3c(c2)n(C)c(=O)n3C)cc1 | inactive: 84%
4 | Cc1c(CNC2CCCCC2)c(C(=O)O)c(C)n1Cc1ccc(F)cc1 | inactive: 85%
5 | CCOc1ccc(C(=O)Nc2ccc(-n3nncc3-c3ccccc3)cc2)cc1OCC | inactive: 116%
6 | CCC(=O)Nc1ccc2nc3c(=O)n(C)c(=O)n(C)c3nc2c1 | inactive: 66%
7 | CCC(NC(=O)Nc1cc(OC)ccc1OC)c1c(-n2cccc2)sc2c1CCN(CC)C2 (centres undefined) | inactive: 88%
8 | CC1(C)CC(=O)C2=C(C1)OC1=C(C(=O)CC(C)(C)C1)C2c1ccc2c(c1)OCO2 | inactive: 69%
9 | CCN(C(=O)c1cc2c(=O)n3cccc(C)c3nc2s1)c1ccc(C)c(C)c1 | inactive: 65%
10 | Cc1nn(CC(=O)Nc2cc(F)ccc2F)c(=O)c2cccn12 | inactive: 94%
11 | CC(C)(C)c1ccccc1NC(=O)CSc1nc(-c2cccs2)cc(C(F)(F)F)n1 | active: 23%
12 | Cc1cc(Nc2ccc(Cl)cc2C)nc(-n2nc(C)cc2C)n1 | inactive: 74%
13 | CN1CCN(C2=NC(=O)/C(=C\C=C/c3ccccc3)S2)CC1 | inactive: 79%
14 | CC(C)c1noc(-c2ccccc2OCC(=O)Nc2ccccc2[N+](=O)[O-])n1 | active: 44%
15 | O=C(NCc1ccc2c(c1)CCN2C(=O)c1ccc(F)cc1)c1ccco1 | inactive: 115%
16 | Cc1cc(C)n(-c2n[nH]c(=S)c3ccccc23)n1 | inactive: 81%
17 | CCOc1ccc(-n2c(CC)nc3c(cnn3-c3ccc(Cl)cc3)c2=O)cc1 | inactive: 46%
18 | COc1ccc(-c2nc3c4ccccc4n(CC(=O)N4CCN(c5ccc(F)cc5)CC4)c(=O)n3n2)cc1 | inactive: 79%
19 | Cc1cccc(Cn2c(C)c(CNC3CCCCCC3)c(C(=O)O)c2C)c1 | inactive: 83%
20 | COc1c(Cl)cc(C(=O)N(Cc2ccc(C)o2)C2CCS(=O)(=O)C2)cc1Cl (centres undefined) | inactive: 79%
21 | Cc1oc(-c2cccc(Cl)c2)nc1CN1CCCC(C(=O)N2CCN(c3ccc(F)cc3)CC2)C1 (centres undefined) | inactive: 111%
22 | O=C(Cn1c(=O)c2ccccc2n(CC(=O)Nc2ccc(F)cc2)c1=O)NCCc1ccccc1 | inactive: 117%
23 | O=C(CSc1nc2c([nH]c3ccccc32)c(=O)n1-c1cccc(Cl)c1)N1CCOCC1 | inactive: 70%
24 | CCCCCC(=O)Nc1ccc(NC(=O)c2cc3ccccc3o2)c(OC)c1 | inactive: 68%
